Test results taken from patent US20120100139A1 (APTEVO RESEARCH AND DEVELOPMENT, published 2012).

How the values were obtained:
[1] = biological target: T1, PD1 ectodomain fused to a C-terminal AviTag, biotinylated (biotinylated on the AviTag with the BirA enzyme); test: SPR (BIAcore T100), biotinylated PD1 captured on neutravidin; bivalent analyte model, first site
T1 construct: also called biotinylated PD1
T1 chain: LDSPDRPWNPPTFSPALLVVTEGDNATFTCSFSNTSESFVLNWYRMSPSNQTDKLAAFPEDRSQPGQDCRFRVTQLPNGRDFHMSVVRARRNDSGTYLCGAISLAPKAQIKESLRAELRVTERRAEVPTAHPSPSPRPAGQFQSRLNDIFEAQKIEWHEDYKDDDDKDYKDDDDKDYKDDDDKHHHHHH
Method: (§1) SPR measurements were performed on a BIAcore™ T100 SPR (Pharmacia Biotech AB, Uppsala) using HBS-P+ (GE Healthcare) as a running buffer. […] PDL1/2-containing constructs were injected for 120 seconds, at a flow rate of 30 μl/min, in a series of concentrations from 6 nM to 2 μM. Dissociation was monitored for 1200 seconds, and the surface was regenerated by injecting 50 mM NaOH, 1M NaCl for 30 seconds.
(§2) Data were analyzed using BiaEvaluation for the T100 software (version 2.0.1, GE Healthcare).

[2] = biological target: T1, PD1 ectodomain fused to a C-terminal …; test: SPR (BIAcore T100), biotinylated PD1 captured on neutravidin; steady-state equilibrium fit
Method: as §1, §2

koff [1]: 0.0544 s⁻¹ | kon [1]: 96000 M⁻¹ s⁻¹ | Kd [2]: 246 nM
B1: PDL1-Fc (Fc fusion)
chain: not shown
